Where a name gives a salt, the structure may show the parent alone. ± gives the standard deviation of the averaged measurements. Over roughly 1,900 compounds, “normalised cell viability (NPI; 0 = phenylarsine oxide control, 1 = DMSO control)” has its median near 1; the lowest 2% begin near 0.039. The list shows a part of the results.

The test system of this experiment is NCI-H1944. The experiment is described as follows: normalised cell viability (NPI; 0 = phenylarsine oxide control, 1 = DMSO control) (fraction of DMSO control); NCI-H1944 is a non-small cell lung cancer line; higher = more viable cells (less compound toxicity). Particulars: 6 days.
Setting [1] is: glucocorticoid arm: hydrocortisone 2.75 uM co-treatment, compound 1 µM.
[2] abbreviates: glucocorticoid arm: hydrocortisone 2.75 uM co-treatment, compound 5 µM.
Where [3] appears, read: glucocorticoid arm: hydrocortisone 2.75 uM pre-treated 2 days and continued, compound 1 µM.
[4] abbreviates: glucocorticoid arm: hydrocortisone 2.75 uM pre-treated 2 days and continued, compound 5 µM.
Setting [5] is: glucocorticoid arm: vehicle, compound 1 µM.
Where [6] appears, read: glucocorticoid arm: vehicle, compound 5 µM.
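Further: CTB read-out in 384-well plates, mean of triplicate wells, normalised per plate against 1 µM phenylarsine oxide and 0.1% DMSO, compounds added 24 h after seeding.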

Take `C[C@]12C=CC(=O)C=C1CC[C@@H]1C2=CC[C@]2(C)[C@@H](C(=O)CN3CCN(c4cc(N5CCCC5)nc(N5CCCC5)n4)CC3)CC[C@@H]12`: the normalised cell viability came to 0.991 ± 0.0066 under setting [1]; 1.01 ± 0.011 under setting [2]; 1.03 ± 0.026 under setting [3]; 1.07 ± 0.011 under setting [4]; 0.9937 ± 0.006 under setting [5]; 1.003 ± 0.0061 under setting [6].

As for `COc1cc2nccc(Oc3ccc(NC(=O)Nc4ccc(F)cc4F)c(F)c3)c2cc1OC`, the normalised cell viability under setting [1] worked out at 1.05 ± 0.011; the normalised cell viability under setting [2] was 1.06 ± 0.01; the normalised cell viability under setting [3] stood at 1.037 ± 0.0058; the normalised cell viability under setting [4] amounted to 1.04 ± 0.021; the normalised cell viability under setting [5] was 1.003 ± 0.0063; the normalised cell viability under setting [6] amounted to 1.013 ± 0.0058.

As to `CCC[C@H](NC(=O)/C(C#N)=C/c1cccc(Br)n1)c1ccccc1`, the normalised cell viability runs as follows: under setting [1], 1.017 ± 0.0058; under setting [2], 0.726 ± 0.1; under setting [3], 1.02 ± 0.01; under setting [4], 1.09 ± 0.025; under setting [5], 0.996 ± 0.0046; under setting [6], 0.339 ± 0.026.

With `O=c1onc2n1-c1cc(Br)ccc1OC2`, the normalised cell viability under setting [1] was determined as 1.02 ± 0.016; the normalised cell viability under setting [2] was 0.996 ± 0.013; the normalised cell viability under setting [3] is 1.027 ± 0.0058; the normalised cell viability under setting [4] was found to be 1.06 ± 0.064; the normalised cell viability under setting [5] was found to be 1.023 ± 0.0058; the normalised cell viability under setting [6] was 1.033 ± 0.0058.

In the case of `Cc1ccc(/C(=C\CN2CCCC2)c2ccccn2)cc1` [Triprolidine hydrochloride], the normalised cell viability reads like this: under setting [1], 1 ± 0.0095; under setting [2], 1 ± 0.033; under setting [3], 1.02 ± 0.017; under setting [4], 0.996 ± 0.026; under setting [5], 1.002 ± 0.0076; under setting [6], 1.01 ± 0.011.

For the compound `CCc1c2c(nc3ccc(OC(=O)N4CCC(N5CCCCC5)CC4)cc13)-c1cc3c(c(=O)n1C2)COC(=O)[C@]3(O)CC` [Irinotecan HCl; Irinotecan hydrochloride], the normalised cell viability under setting [1] was 1.02 ± 0.01; the normalised cell viability under setting [2] is 0.353 ± 0.013; the normalised cell viability under setting [3] was found to be 1.01 ± 0.014; the normalised cell viability under setting [4] is 0.693 ± 0.015; the normalised cell viability under setting [5] was 0.914 ± 0.022; the normalised cell viability under setting [6] came out at 0.0996 ± 0.0021.

With `C=CCN1CCc2c(cc(O)c(O)c2Cl)C(c2ccccc2)C1` (racemic) [(±)-Chloro-APB hydrobromide], the normalised cell viability reads like this: under setting [1], 0.9917 ± 0.0072; under setting [2], 1.02 ± 0.01; under setting [3], 0.989 ± 0.0061; under setting [4], 1 ± 0.011; under setting [5], 0.9943 ± 0.0021; under setting [6], 0.99467 ± 0.00058.

On to `CNCCC=C1c2ccccc2CCc2ccccc21` [Nortriptyline hydrochloride], for which the normalised cell viability stood at 1.013 ± 0.0058 under setting [1]; 0.98 ± 0.026 under setting [2]; 1.02 ± 0.011 under setting [3]; 0.861 ± 0.28 under setting [4]; 0.9993 ± 0.0011 under setting [5]; 1.02 ± 0.01 under setting [6].

As for `O=C(NC(NC(=S)Nc1ccc(F)c([N+](=O)[O-])c1)C(Cl)(Cl)Cl)C(c1ccccc1)c1ccccc1` (centres undefined), the normalised cell viability runs as follows: under setting [1], 0.9663 ± 0.0071; under setting [2], 0.932 ± 0.011; under setting [3], 0.946 ± 0.025; under setting [4], 0.964 ± 0.007; under setting [5], 0.9937 ± 0.0025; under setting [6], 0.995 ± 0.017.

For `Cc1ccc(C(=O)Nc2ccc(S(=O)(=O)O)c3cc(S(=O)(=O)O)cc(S(=O)(=O)O)c23)cc1NC(=O)c1cccc(NC(=O)Nc2cccc(C(=O)Nc3cc(C(=O)Nc4ccc(S(=O)(=O)O)c5cc(S(=O)(=O)O)cc(S(=O)(=O)O)c45)ccc3C)c2)c1` [Suramin·6Na], the normalised cell viability reads like this: under setting [1], 1.01 ± 0.015; under setting [2], 1.03 ± 0.013; under setting [3], 1 ± 0.011; under setting [4], 1.03 ± 0.014; under setting [5], 0.9985 ± 0.0064; under setting [6], 1.01 ± 0.0063.

Regarding `Cc1ccc(C(=O)Nc2ccc(S(=O)(=O)O)c3cc(S(=O)(=O)O)cc(S(=O)(=O)O)c23)cc1NC(=O)c1cccc(NC(=O)Nc2cccc(C(=O)Nc3cc(C(=O)Nc4ccc(S(=O)(=O)O)c5cc(S(=O)(=O)O)cc(S(=O)(=O)O)c45)ccc3C)c2)c1` [Suramin hexasodium], the normalised cell viability by setting is: under setting [1], 1.02 ± 0.015; under setting [2], 1.03 ± 0.01; under setting [3], 1.03 ± 0.023; under setting [4], 1.03 ± 0.015; under setting [5], 0.991 ± 0.023; under setting [6], 1.006 ± 0.0069.

For `NC(=O)c1ncn([C@@H]2O[C@H](CO)[C@@H](O)[C@H]2O)c1O` [Mizoribine], the normalised cell viability under setting [1] is 0.977 ± 0.0098; the normalised cell viability under setting [2] came to 0.947 ± 0.02; the normalised cell viability under setting [3] came to 0.993 ± 0.019; the normalised cell viability under setting [4] was found to be 1 ± 0.098; the normalised cell viability under setting [5] is 0.9787 ± 0.0032; the normalised cell viability under setting [6] is 0.984 ± 0.013.

Take `CCOc1cc2ncc(C#N)c(Nc3ccc(OCc4ccccn4)c(Cl)c3)c2cc1NC(=O)/C=C/CN(C)C` [Neratinib (HKI-272)]: the normalised cell viability under setting [1] was 0.792 ± 0.0085; the normalised cell viability under setting [2] was determined as 0.633 ± 0.033; the normalised cell viability under setting [3] worked out at 0.812 ± 0.048; the normalised cell viability under setting [4] was determined as 0.722 ± 0.027; the normalised cell viability under setting [5] stood at 0.761 ± 0.054; the normalised cell viability under setting [6] was 0.583 ± 0.01.

With `Cc1cc(NC(=O)c2cccc(NC(=O)/C=C/CN(C)C)c2)ccc1Nc1nccc(-c2cccnc2)n1`, the normalised cell viability under setting [1] was found to be 0.989 ± 0.016; the normalised cell viability under setting [2] was determined as 0.943 ± 0.017; the normalised cell viability under setting [3] worked out at 1.007 ± 0.0058; the normalised cell viability under setting [4] was 0.917 ± 0.026; the normalised cell viability under setting [5] was found to be 0.959 ± 0.011; the normalised cell viability under setting [6] was found to be 0.702 ± 0.033.

Take `O=C1c2ccccc2C(=O)c2c(NCCc3ccc(O)cc3)ccc(NCCc3ccc(O)cc3)c21`: the normalised cell viability runs as follows: under setting [1], 1.01 ± 0.012; under setting [2], 1.02 ± 0.038; under setting [3], 1.01 ± 0.012; under setting [4], 1.012 ± 0.0075; under setting [5], 1.01 ± 0.0063; under setting [6], 1.022 ± 0.0098.

As for `FC(F)(F)c1ccc(/C=C/c2nc(COc3ccc(CCCCn4ccnn4)cc3)co2)cc1` [Mubritinib (TAK 165)], the normalised cell viability turned out to be 0.806 ± 0.011 under setting [1]; 0.46 ± 0.025 under setting [2]; 0.81 ± 0.031 under setting [3]; 0.638 ± 0.088 under setting [4]; 0.85 ± 0.0053 under setting [5]; 0.54 ± 0.094 under setting [6].

`CNCC[C@H](Oc1ccc(C(F)(F)F)cc1)c1ccccc1` [S-(+)-Fluoxetine hydrochloride]: the normalised cell viability turned out to be 0.9977 ± 0.0015 under setting [1]; 0.926 ± 0.006 under setting [2]; 1.01 ± 0.01 under setting [3]; 1.023 ± 0.0058 under setting [4]; 1.001 ± 0.009 under setting [5]; 1 ± 0.011 under setting [6].

As for `CC(=O)OCC(=O)[C@@]1(O)CC[C@H]2[C@@H]3CCC4=CC(=O)CC[C@]4(C)[C@H]3C(=O)C[C@@]21C` [Cortisone 21-acetate], the normalised cell viability is, setting by setting: under setting [1], 0.989 ± 0.016; under setting [2], 1.02 ± 0.01; under setting [3], 0.996 ± 0.017; under setting [4], 1.015 ± 0.0071; under setting [5], 0.998 ± 0.011; under setting [6], 1.01.

With `Cn1cc(C(=O)OCC2CCN(CCNS(C)(=O)=O)CC2)c2ccccc21`, the normalised cell viability reads like this: under setting [1], 1.01 ± 0.01; under setting [2], 0.997 ± 0.014; under setting [3], 1.02 ± 0.011; under setting [4], 1.03 ± 0.014; under setting [5], 1.017 ± 0.0058; under setting [6], 1.023 ± 0.0058.

Turning to `Cc1nc(N=Nc2ccc(C(=O)O)cc2)c(COP(=O)(O)O)c(C=O)c1O`, the normalised cell viability reads like this: under setting [1], 0.999 ± 0.0017; under setting [2], 0.998 ± 0.02; under setting [3], 1.01 ± 0.01; under setting [4], 1.005 ± 0.0087; under setting [5], 0.9937 ± 0.0085; under setting [6], 1 ± 0.016.

Consider `C[C@H]1C[C@H]2[C@@H]3CCC4=CC(=O)C=C[C@]4(C)[C@@]3(Cl)[C@@H](O)C[C@]2(C)[C@@]1(O)C(=O)CO` [Beclomethasone], for which the normalised cell viability runs as follows: under setting [1], 0.998 ± 0.0017; under setting [2], 1.02 ± 0.01; under setting [3], 1.01 ± 0.01; under setting [4], 1; under setting [5], 0.803 ± 0.031; under setting [6], 0.738 ± 0.039.

On to `Oc1ccc(O)cc1` [Hydroquinone], for which the normalised cell viability by setting is: under setting [1], 1.01 ± 0.025; under setting [2], 1.05 ± 0.015; under setting [3], 1.01 ± 0.015; under setting [4], 1.02 ± 0.011; under setting [5], 0.9993 ± 0.0011; under setting [6], 1.01.

For `COc1cc2nc(N3CCN(C(=O)C4CCCO4)CC3)nc(N)c2cc1OC` (centres undefined) [Terazosin hydrochloride], the normalised cell viability reads like this: under setting [1], 0.998 ± 0.019; under setting [2], 1.02 ± 0.016; under setting [3], 0.856 ± 0.24; under setting [4], 1.001 ± 0.0076; under setting [5], 0.993 ± 0.004; under setting [6], 1 ± 0.0095.

As for `COc1cc2nc(N3CCN(C(=O)C4CCCO4)CC3)nc(N)c2cc1OC` (centres undefined) [Terazosin HCl], the normalised cell viability by setting is: under setting [1], 1.02 ± 0.022; under setting [2], 1.02 ± 0.024; under setting [3], 1.05 ± 0.01; under setting [4], 1.02 ± 0.015; under setting [5], 1.023 ± 0.0058; under setting [6], 1.01 ± 0.015.

These data come from the supplement of paper PMC8285479.
